# Laboratory results: PubChem BioAssay AID2675 (National Center for Advancing Translational Sciences (NCATS), 2010)
# About 100 (0.036%) of roughly 280,000 compounds were called active. This list was built around the results that the source calls inconclusive (neither active nor inactive); the mix of calls is not that of the screen. The call rests on the fitted dose curve; in most records, active means well fitted inhibition curve with a large enough effect in the signal ratio, with a control signal flat (not every such curve was filed as active); inconclusive means small, poorly fitted or top-dose-only effect, or effect the other way, or a change in a side signal; inactive means no such curve, though single readings can be large or run the other way; the % refers to the signal ratio. Where the call is inconclusive, the potency comes from a doubtful curve fit. A note “side channel” means that the fit belongs to a control or component signal, not to the main read-out.
# Molecular target: Muscleblind-like protein 1 (Homo sapiens) (UniProt Q9NR56)
# Chain of UniProt Q9NR56 (Q9NR56 whole entry, looked up): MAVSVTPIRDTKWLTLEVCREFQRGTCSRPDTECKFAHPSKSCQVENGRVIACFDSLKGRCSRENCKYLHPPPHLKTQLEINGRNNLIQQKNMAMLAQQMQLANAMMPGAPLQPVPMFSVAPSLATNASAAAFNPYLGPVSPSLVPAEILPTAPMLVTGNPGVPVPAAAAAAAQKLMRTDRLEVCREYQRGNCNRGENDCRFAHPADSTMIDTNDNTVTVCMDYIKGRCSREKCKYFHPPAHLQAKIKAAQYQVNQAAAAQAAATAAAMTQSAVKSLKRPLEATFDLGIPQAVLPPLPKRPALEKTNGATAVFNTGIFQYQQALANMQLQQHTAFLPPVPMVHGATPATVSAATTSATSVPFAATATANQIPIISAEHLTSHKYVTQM
# Experiment: qHTS Assay for Inhibitors of MBNL1-poly(CUG) RNA binding
# Conditions: TR-FRET MBNL1-His/biotin-(CUG)12 binding, 665/545 ratio; series mostly up to 57.5 µM
# Summary of the method: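 Compounds (final 92 nM to 58 uM) are added to His-tagged MBNL1 and biotin-(CUG)12, then terbium anti-His antibody and streptavidin-XL665 (5 nM final). After 60 min at room temperature, the 665/545 nm ratio is read.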
# Potency means the concentration at half of the fitted maximal effect; tags describe the fitted curve by direction and shape or compound fluorescence and quenching.
row,Compound,Potency
1,CSc1nc(Sc2ccccc2Cl)c2ccccc2n1,inactive
2,O=C(CN1C(=O)c2cccc3cccc(c23)C1=O)NCCN1CCOCC1,"inconclusive: 11.2 µM [quencher, partial curve]"
3,CC(C)N1CCC(N2CCN(C/C=C/c3ccccc3)CC2CCO)CC1 (stereo not drawn),inactive
4,CCN(CC)CCCOc1ccc(Cl)c(Cl)c1,inactive
5,O=C1CC(N(Cc2cccs2)C(=O)Nc2ccccc2)C(=O)N1c1ccc(Cl)cc1 (stereo not drawn),"inconclusive: 0.1 µM [fluorescent, side channel, full curve]"
6,CCOC(=O)CNC(=O)c1sc2ncnc(N3CCc4ccccc4C3)c2c1C,"inconclusive: 28.2 µM [quencher, side channel, single point]"
7,Clc1cccc(N/N=C(\Cc2nc3ccccc3[nH]2)c2ccccc2)c1,"inconclusive: 0.251 µM [fluorescent, side channel, full curve]"
8,CN(C)C(/C=C/Nc1ccc([N+](=O)[O-])cc1)=C(C#N)C#N,"inconclusive: 14.1 µM [quencher, side channel, partial curve]"
9,COc1ccc(C(=O)Nc2c3c(nn2-c2ccc([N+](=O)[O-])cc2)CS(=O)(=O)C3)cc1,"inconclusive: 1.58 µM [quencher, side channel, full curve]"
10,CCOc1ccc(-n2nnnc2SCC(=O)N2CCOCC2)cc1,"inconclusive: 7.08 µM [quencher, side channel, single point]"
11,COc1ccc(C2C(C(=O)OCC3CCCO3)=C(C)NC3=C2C(=O)CC(c2ccco2)C3)cc1O (stereo not drawn),inactive
12,c1ccc2c(c1)ncn2CCN1CCCCC1,inactive
13,Cc1ccc(C(=O)COC(=O)CN2C(=O)C3C4CCC(C4)C3C2=O)cc1[N+](=O)[O-] (stereo not drawn),"inconclusive: 28.2 µM [activator, partial curve]"
14,CCN(CC)C(=O)CN1C(=O)/C(=C/c2ccccc2)SC1=S,"inconclusive: 3.55 µM [quencher, side channel, full curve, poor fit]"
15,C(=N\Nc1nc2ccccc2[nH]1)/c1ccncc1,"inconclusive: 28.2 µM [quencher, side channel, single point]"
16,Cc1cc(C)nc(SCc2nnc(SCC(=O)Nc3ccc(C)c(C)c3)n2Cc2ccco2)n1,"inconclusive: 39.8 µM [quencher, side channel, single point]"
17,Cc1cc(C)nc(-n2nc(C)cc2NC(=O)CNC2CCCCC2)n1,inactive
18,COC(=O)c1ccc(SCC(=O)N2CCC(C)CC2)c([N+](=O)[O-])c1,"inconclusive: 15.8 µM [activator, partial curve]"
19,CCCOc1ccc(NC(=O)C(=O)NCCCn2ccnc2)cc1,"inconclusive: 0.112 µM [fluorescent, side channel, full curve, poor fit]"
20,O=C1NC2=C(C(=O)CCC2)C(c2ccc([N+](=O)[O-])cc2)N1 (stereo not drawn),"inconclusive: 28.2 µM [quencher, side channel, partial curve]"
21,O=C(Nc1ccc(S(=O)(=O)Nc2cnc3ccccc3n2)cc1)c1ccc([N+](=O)[O-])cc1Cl,"inconclusive: 31.6 µM [quencher, side channel, partial curve]"

row,Compound,Potency
1,CN(C)c1ccc(C2C=C(c3ccc(Cl)cc3OC(F)F)Nc3ncnn32)cc1 (stereo not drawn),inactive
2,C[N+](C)(CCCCCC[N+](C)(C)CCCN1C(=O)c2cccc3cccc(c23)C1=O)CCCN1C(=O)c2cccc3cccc(c23)C1=O,"inconclusive: 11.2 µM [quencher, side channel, partial curve]"
3,Cc1cccc(NC(=O)c2ccc(NCCO)c([N+](=O)[O-])c2)n1,"inconclusive: 3.16 µM [quencher, side channel, full curve]"
4,CCOC(=O)C1=C(C)NC(=O)NC1C1CC=CCC1 (stereo not drawn),inactive
5,CCN(CC)CCCOC(=O)c1ccc(OC)cc1O,inactive
6,NC(=O)CC(NC(=O)Cc1cccc2ccccc12)c1ccc(NCCN2CCCC2)c([N+](=O)[O-])c1 (stereo not drawn),"inconclusive: 25.1 µM [quencher, side channel, partial curve]"
7,O=C1C2C3C=CC(CC3)C2C(=O)N1c1ccccc1[N+](=O)[O-] (stereo not drawn),"inconclusive: 25.1 µM [quencher, side channel, partial curve]"
8,Cc1ccc(/C=C2\SC(N3CCCCC3)=NC2=O)cc1,"inconclusive: 14.1 µM [quencher, partial curve]"
9,COc1cc(/C=C/c2cc(C(=O)O)c3ccccc3n2)cc(OC)c1O,"inconclusive: 22.4 µM [quencher, side channel, partial curve]"
10,CS(=O)(=O)c1ccc(NCCc2ccc(S(N)(=O)=O)cc2)c([N+](=O)[O-])c1,"inconclusive: 11.2 µM [quencher, side channel, partial curve]"
11,O=C(NC(=S)NNC(=O)c1ccco1)c1ccccc1,inactive
12,CC(=O)Nc1ccc(Oc2sc(C(=O)c3ccccc3)c(N)c2C#N)cc1,"inconclusive: 15.8 µM [quencher, side channel, partial curve]"
13,CCOc1ccc(N=Cc2ccc3ccccc3c2)cc1,inactive
14,O=C(O)CCCNc1ccc([N+](=O)[O-])c(NCCCC(=O)O)n1,"inconclusive: 25.1 µM [quencher, side channel, single point]"
15,O=S(=O)(c1ccc(Br)s1)N1CCC(Cc2ccccc2)CC1,inactive
16,CCOC(=O)c1nn(-c2ccccc2)c(=O)cc1SC(C)C,"inconclusive: 14.1 µM [quencher, side channel, partial curve]"
17,CC(=O)N1N=C(c2cccc([N+](=O)[O-])c2)OC1(C)c1cccs1 (stereo not drawn),"inconclusive: 22.4 µM [quencher, side channel, partial curve]"
18,Cc1ccc(NC(=O)COC(=O)[C@H](C)NC(=O)c2ccccc2)cc1S(=O)(=O)N1CCOCC1,inactive
19,CSc1nnc2c(n1)OC1(Nc3ccccc3-2)C(=O)Nc2ccccc21 (stereo not drawn),"inconclusive: 4.47 µM [quencher, side channel, full curve]"
20,c1cc2[nH]snc2c2nc(C3CC3)nc12,"inconclusive: 11.2 µM [quencher, side channel, partial curve]"
21,COc1cc2c(cc1OC)C(c1ccccc1)=NCC2,"inconclusive: 3.16 µM [quencher, side channel, full curve]"

row,Compound,Potency
1,Cc1ccc(NC(=S)NC(=O)C2CC2)c(C)c1,inactive
2,Cn1cnc(Sc2ncnc3nc[nH]c23)c1[N+](=O)[O-],"inconclusive: 10 µM [quencher, side channel, partial curve]"
3,C=CCOn1c(=O)c(-c2ccc(Cl)cc2)[n+]([O-])c2ccccc21,"inconclusive: 2 µM [quencher, side channel, full curve]"
4,CCOC(=O)C(Nc1ccc2ccccc2c1)C(=O)OCC,"inconclusive: 14.1 µM [quencher, side channel, partial curve]"
5,Cc1cccc(NC(=O)c2cc([N+](=O)[O-])ccc2NCC2CCCO2)n1 (stereo not drawn),"inconclusive: 12.6 µM [quencher, side channel, partial curve]"
6,CCOC(=O)c1ccc(NC(=S)NCCC2=CCCCC2)cc1,"inconclusive: 0.1 µM [fluorescent, side channel, full curve, poor fit]"
7,O=[N+]([O-])c1cc(NCCO)c(N2CCCCCC2)c2nonc12,"inconclusive: 15.8 µM [quencher, side channel, partial curve]"
8,CC(C)NC(=O)c1cc2cc(Br)ccc2oc1=O,inactive
9,CCOc1cccc(/C=C/c2ccc3ccccc3n2)c1OC(C)=O,"inconclusive: 15.8 µM [quencher, side channel, partial curve]"
10,C/C(=N\Nc1ccc(C(=O)O)cc1)c1ccc(-n2ccnc2)cc1,"inconclusive: 31.6 µM [quencher, side channel, single point]"
11,Cc1oc(C)c2c(=O)ccc3c(c12)OC(N)=C(C#N)C3c1ccccc1Cl (stereo not drawn),"inconclusive: 8.91 µM [quencher, side channel, full curve, poor fit]"
12,COc1ccc(N(CC(=O)NCc2ccc(F)cc2)S(=O)(=O)c2c(C)noc2C)cc1,inactive
13,O=C(OCc1nc2scc(-c3ccccc3)c2c(=O)[nH]1)c1cccc([N+](=O)[O-])c1,inactive
14,Cc1c(O)ccc2cc(S(=O)(=O)c3ccccc3)c(=O)oc12,inactive
15,COc1cc(/C=C2/SC(=O)N(CC(=O)N3CCCC3)C2=O)ccc1Oc1ccc([N+](=O)[O-])cn1,"inconclusive: 3.16 µM [quencher, side channel, partial curve]"
16,Cc1cc(C(C)(C)C)oc1C(=O)N(CC(=O)NC1CCCC1)Cc1ccc(Cl)cc1,"inconclusive: 0.562 µM [quencher, side channel, single point]"
17,O=C(N/N=C/c1cccc(C(F)(F)F)c1)c1cc2c(s1)-c1ccccc1CC2,"inconclusive: 0.631 µM [quencher, side channel, full curve]"
18,Cc1cc(N2C(=O)C=CC2=O)c([N+](=O)[O-])cc1C,inactive
19,CCOc1cc(N2CCOCC2)c(OCC)cc1NC(=O)CC12CC3CC(CC(C3)C1)C2,inactive
20,O=C(CSc1ccc([N+](=O)[O-])cn1)Nc1nccs1,"inconclusive: 2.51 µM [quencher, full curve]"
21,COc1ccc(/C=N/c2c(-c3ccco3)nc3ccccn23)cc1OC,"inconclusive: 39.8 µM [quencher, side channel, partial curve, poor fit]"
